Where a chain is given by its changes, count along the chain named. Results are given in words; binding and its absence hold for the method and conditions named. Binding seen in cells or lysates may run through a third protein. Some entries that bind do so weakly or less than the wild type. Where a sequence is shown, tags or fusion partners need not be part of it.
Assays:
Assay in all cases: co-IP; Myc IP: HEK293T cells transfected, lysed in TNE buffer (150 mM NaCl, 1% NP40), anti-myc antibody and Protein G Sepharose, blotted with anti-FLAG
[1] = target: T1, myc-tagged human ARMC5 (pcDNA3.1-myc-hARMC5), wild type (human) (UniProt Q96C12)
T1 sequence: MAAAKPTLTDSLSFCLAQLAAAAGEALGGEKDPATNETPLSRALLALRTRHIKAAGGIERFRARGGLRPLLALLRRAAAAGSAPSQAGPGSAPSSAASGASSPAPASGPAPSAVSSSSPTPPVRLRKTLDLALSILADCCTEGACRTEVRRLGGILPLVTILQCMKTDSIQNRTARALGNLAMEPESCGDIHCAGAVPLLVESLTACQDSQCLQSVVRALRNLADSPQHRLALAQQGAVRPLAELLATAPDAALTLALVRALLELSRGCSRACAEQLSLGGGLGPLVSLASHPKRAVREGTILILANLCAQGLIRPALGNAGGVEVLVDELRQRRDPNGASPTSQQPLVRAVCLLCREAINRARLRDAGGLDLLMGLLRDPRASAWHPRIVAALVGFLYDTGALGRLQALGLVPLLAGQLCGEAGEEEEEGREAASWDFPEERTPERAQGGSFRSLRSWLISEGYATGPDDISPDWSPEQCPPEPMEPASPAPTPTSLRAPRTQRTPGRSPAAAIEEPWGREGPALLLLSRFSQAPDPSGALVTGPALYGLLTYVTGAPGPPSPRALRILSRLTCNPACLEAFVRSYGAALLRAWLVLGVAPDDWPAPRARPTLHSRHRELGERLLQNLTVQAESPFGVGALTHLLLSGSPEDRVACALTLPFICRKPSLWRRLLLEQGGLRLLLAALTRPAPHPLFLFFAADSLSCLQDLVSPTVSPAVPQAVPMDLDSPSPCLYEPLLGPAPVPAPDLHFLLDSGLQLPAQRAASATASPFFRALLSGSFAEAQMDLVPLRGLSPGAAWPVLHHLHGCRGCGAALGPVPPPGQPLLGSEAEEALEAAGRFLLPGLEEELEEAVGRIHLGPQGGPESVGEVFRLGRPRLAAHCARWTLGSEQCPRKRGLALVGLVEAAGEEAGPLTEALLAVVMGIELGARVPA

[2] = target: T2, myc-tagged human ARMC5(R898W) (human) (UniProt Q96C12)
T2 sequence: T1 sequence with R898W

[3] = target: T3, myc-tagged mouse ARMC5 (pcDNA3.1-myc-mArmc5) (mouse) (UniProt Q5EBP3)
T3 sequence: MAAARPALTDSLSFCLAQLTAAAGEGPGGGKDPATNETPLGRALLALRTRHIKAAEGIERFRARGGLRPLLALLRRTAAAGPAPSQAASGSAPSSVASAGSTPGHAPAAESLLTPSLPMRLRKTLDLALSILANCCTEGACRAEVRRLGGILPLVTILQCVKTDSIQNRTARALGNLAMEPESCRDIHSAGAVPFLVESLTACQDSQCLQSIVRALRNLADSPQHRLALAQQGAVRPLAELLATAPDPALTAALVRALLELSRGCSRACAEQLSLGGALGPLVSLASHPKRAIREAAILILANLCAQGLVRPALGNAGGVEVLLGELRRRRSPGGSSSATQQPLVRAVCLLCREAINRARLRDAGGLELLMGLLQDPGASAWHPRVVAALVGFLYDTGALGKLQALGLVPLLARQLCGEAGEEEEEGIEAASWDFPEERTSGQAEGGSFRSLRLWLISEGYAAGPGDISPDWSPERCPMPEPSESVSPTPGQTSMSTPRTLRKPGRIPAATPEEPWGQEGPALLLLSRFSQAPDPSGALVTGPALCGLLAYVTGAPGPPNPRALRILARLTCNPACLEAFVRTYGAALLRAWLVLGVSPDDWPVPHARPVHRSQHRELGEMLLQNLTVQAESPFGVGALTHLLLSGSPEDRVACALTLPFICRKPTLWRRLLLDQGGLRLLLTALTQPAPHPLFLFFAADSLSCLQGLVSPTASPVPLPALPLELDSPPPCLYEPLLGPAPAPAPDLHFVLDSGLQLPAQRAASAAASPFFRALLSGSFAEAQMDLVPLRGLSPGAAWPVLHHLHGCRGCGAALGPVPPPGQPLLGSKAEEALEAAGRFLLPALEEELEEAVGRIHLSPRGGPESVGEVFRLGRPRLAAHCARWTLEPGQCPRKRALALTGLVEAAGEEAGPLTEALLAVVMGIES

Measured: binding

B1: FLAG-SREBF1(N), N-terminus of mouse SREBF1, from pcDNA3.1-FLAG-Srebf1(N) in HEK293T (domain or fragment, UniProt Q9WTN3 2-453)
chain: DELAFGEAALEQTLAEMCELDTAVLNDIEDMLQLINNQDSDFPGLFDAPYAGGETGDTGPSSPGANSPESFSSASLASSLEAFLGGPKVTPAPLSPPPSAPAALKMYPSVSPFSPGPGIKEEPVPLTILQPAAPQPSPGTLLPPSFPAPPVQLSPAPVLGYSSLPSGFSGTLPGNTQQPPSSLPLAPAPGVLPTPALHTQVQSLASQQPLPASAAPRTNTVTSQVQQVPVVLQPHFIKADSLLLTAVKTDAGATVKTAGISTLAPGTAVQAGPLQTLVSGGTILATVPLVVDTDKLPIHRLAAGSKALGSAQSRGEKRTAHNAIEKRYRSSINDKIVELKDLVVGTEAKLNKSAVLRKAIDYIRFLQHSNQKLKQENLTLRSAHKSKSLKDLVSACGSGGGTDVSMEGMKPEVVETLTPPPSDAGSPSQSSPLSFGSRASSSGGSDSEPDSP
binds: all assays above
